Results as given in US11898187B2 (priority 2017, dated 2024).

Key:
Type in all cases: biochemical
Conditions in all cases: 4-mer peptides, fraction modified (0-1)
[1] = system: N-glycosyltransferase from Haemophilus dureyi
[2] = system: N-glycosyltransferase from Haemophilus influenza
[3] = system: N-glycosyltransferase from Mannheimia haemolytica
[4] = system: N-glycosyltransferase from Escherichia coli

| Substance | MO[…] [1] | MO[…] [2] | MO[…] [3] | MO[…] [4] |
| --- | --- | --- | --- | --- |
| ANAS | 0.09516 | 0.05166 |  |  |
| ANAT | 0.7355 | 0.8571 | 0.8731 |  |
| ANFS |  |  |  | 0.3462 |
| ANFT | 0.467 | 0.4619 | 0.8662 |  |
| ANGS |  |  |  | 0.3324 |
| ANGT | 0.1381 |  | 0.4631 |  |
| ANHS | 0.255 | 0.08916 |  | 0.2178 |
| ANKT | 0.0857 | 0.06642 |  |  |
| ANLS |  | 0.06044 |  | 0.2798 |
| ANLT | 0.4251 | 0.2953 | 0.7243 |  |
| ANMS |  |  |  | 0.4469 |
| ANQT | 0.08837 | 0.05717 | 0.5507 |  |
| ANRS |  |  |  | 0.1581 |
| ANRT | 0.4079 | 0.4157 | 0.8535 |  |
| ANST | 0.6067 | 0.1596 | 0.8245 |  |
| ANTT | 0.5802 | 0.1412 | 0.8112 |  |
| ANWT |  |  | 0.4749 |  |
| ANYS |  | 0.06598 |  | 0.3215 |
| ENHT |  |  | 0.4691 |  |
| ENRT |  |  | 0.5844 |  |
| ENST | 0.1377 |  | 0.5946 |  |
| ENVT | 0.1137 |  | 0.663 |  |
| FNAT |  | 0.221 |  |  |
| FNGS |  |  |  | 0.3834 |

| Substance | MO[…] [1] | MO[…] [2] | MO[…] [3] | MO[…] [4] |
| --- | --- | --- | --- | --- |
| FNGT |  |  |  | 0.1939 |
| FNHS |  |  |  | 0.2661 |
| FNHT |  | 0.06027 |  | 0.1591 |
| FNVT |  | 0.1217 | 0.4869 |  |
| GNAT | 0.1198 |  | 0.5492 |  |
| GNFS |  |  |  | 0.1529 |
| GNHS |  |  |  | 0.1945 |
| GNHT | 0.2328 |  | 0.7439 |  |
| GNIS |  |  |  | 0.566 |
| GNIT | 0.1717 |  | 0.5112 | 0.3759 |
| GNLS |  |  |  | 0.2519 |
| GNMS |  |  |  | 0.1652 |
| GNVS | 0.0861 |  |  | 0.5613 |
| GNYS |  |  |  | 0.1558 |
| GNYT | 0.09302 |  | 0.5748 |  |
| HNHS |  | 0.06865 |  |  |
| HNIT |  | 0.1346 | 0.5791 |  |
| HNMT |  | 0.08944 |  |  |
| HNRT |  | 0.1674 | 0.6126 |  |
| HNTT |  | 0.08002 | 0.4958 |  |
| HNVS |  | 0.1771 |  |  |
| HNYT |  | 0.04899 |  |  |
| INHS |  |  |  | 0.3598 |
| INIS |  |  |  | 0.2707 |

| Substance | MO[…] [1] | MO[…] [2] | MO[…] [3] | MO[…] [4] |
| --- | --- | --- | --- | --- |
| INIT |  | 0.08285 |  | 0.4002 |
| INMT |  | 0.1791 |  |  |
| INTVS |  | 0.07728 |  |  |
| INVS |  |  |  | 0.5416 |
| INVT |  | 0.3731 | 0.5547 | 0.2088 |
| LNFS |  |  |  | 0.34 |
| LNHS |  |  |  | 0.5282 |
| LNHT |  |  |  | 0.199 |
| LNIS |  |  |  | 0.7316 |
| LNIT |  | 0.06229 |  | 0.3587 |
| LNLT |  | 0.09507 |  |  |
| LNMS |  |  |  | 0.2128 |
| LNMT |  | 0.08996 |  |  |
| LNRT |  | 0.07143 | 0.4577 |  |
| LNVS |  |  |  | 0.55 |
| LNYS |  |  |  | 0.2036 |
| LNYT |  |  |  | 0.157 |
| MNHS |  |  |  | 0.493 |
| MNHT | 0.1689 |  | 0.7567 | 0.1658 |
| MNIS |  |  |  | 0.4774 |
| MNLT |  | 0.2478 | 0.5491 |  |
| MNRT |  |  | 0.5451 |  |
| MNST |  |  | 0.4619 |  |
| MNVS |  |  |  | 0.4349 |

| Substance | MO[…] [1] | MO[…] [2] | MO[…] [3] | MO[…] [4] |
| --- | --- | --- | --- | --- |
| NNHS | 0.1079 |  |  |  |
| NNIS |  |  |  | 0.4086 |
| NNIT |  |  |  | 0.2501 |
| NNMT |  | 0.07136 |  |  |
| NNST | 0.1878 |  | 0.6601 |  |
| NNTT | 0.2295 |  | 0.6414 |  |
| NNVS | 0.08844 | 0.06 |  | 0.205 |
| NNYT | 0.104 |  | 0.5404 |  |
| PNAS | 0.08678 |  |  | 0.1797 |
| PNFS |  | 0.05968 |  | 0.6983 |
| PNGS |  |  |  | 0.5121 |
| PNGT | 0.1306 |  |  | 0.193 |
| PNHS | 0.1562 | 0.09465 |  | 0.4372 |
| PNKT | 0.1186 | 0.1104 |  |  |
| PNLS |  | 0.1658 |  | 0.6274 |
| PNMS | 0.1322 | 0.1618 |  | 0.7536 |
| PNRS |  |  |  | 0.2652 |
| PNTS | 0.09756 | 0.05223 |  |  |
| PNWS |  |  |  | 0.3348 |
| PNYS | 0.1186 | 0.1361 |  | 0.735 |
| QNVT |  |  | 0.5232 |  |
| RNHT |  | 0.05408 |  |  |
| SNFT |  |  | 0.5376 |  |
| SNGS |  |  |  | 0.1786 |

| Substance | MO[…] [1] | MO[…] [2] | MO[…] [3] | MO[…] [4] |
| --- | --- | --- | --- | --- |
| SNGT | 0.1056 |  |  |  |
| SNHS | 0.1043 |  |  |  |
| SNIS |  |  |  | 0.5901 |
| SNLT | 0.08552 | 0.04837 |  |  |
| SNMS |  |  |  | 0.2531 |
| SNMT | 0.1578 |  | 0.5815 |  |
| SNRT | 0.1781 |  | 0.7222 |  |
| SNST | 0.2143 |  | 0.6484 |  |
| SNTT | 0.2201 |  | 0.6618 |  |
| SNYS |  |  |  | 0.1892 |
| TNHS | 0.08204 |  |  |  |
| TNIS |  |  |  | 0.5324 |
| TNMS |  |  |  | 0.2213 |
| TNMT | 0.08477 |  |  |  |
| TNNT | 0.136 |  |  |  |
| TNST | 0.2587 |  | 0.6244 |  |
| TNTT | 0.1307 |  |  |  |
| TNVS | 0.08794 |  | 0.5462 | 0.3801 |
| VNFS |  |  |  | 0.3254 |
| VNFT |  |  |  | 0.1644 |
| VNHS |  |  |  | 0.2071 |
| VNHT | 0.1091 |  |  |  |
| VNIS |  |  |  | 0.828 |
| VNLS |  |  |  | 0.3417 |

| Substance | MO[…] [1] | MO[…] [2] | MO[…] [3] | MO[…] [4] |
| --- | --- | --- | --- | --- |
| VNLT |  | 0.06502 |  | 0.1992 |
| VNMS |  |  |  | 0.5181 |
| VNRT |  | 0.09507 | 0.4794 |  |
| VNST | 0.1233 |  | 0.5229 |  |
| VNVS |  |  |  | 0.5169 |
| VNYS |  |  |  | 0.3816 |
| WNGS |  |  |  | 0.5843 |
| WNGT |  |  |  | 0.4757 |
| WNIT |  |  | 0.7381 |  |
| WNMT |  | 0.1022 | 0.561 |  |
| WNRT | 0.179 |  | 0.8021 |  |
| WNST |  |  | 0.6108 |  |
| WNTT |  |  | 0.5588 |  |
| WNYT |  |  | 0.4763 |  |
| YNAT |  |  |  | 0.5282 |
| YNGS |  |  |  | 0.2918 |
| YNGT |  |  |  | 0.1762 |
| YNRT |  | 0.07918 |  |  |
| YNVT |  | 0.07614 | 0.4902 |  |
